# Measurements published in PubChem BioAssay AID1345082 (National Center for Advancing Translational Sciences (NCATS), 2018).
# Out of some 94,000 compounds screened, about 4,000 (4.3%) were called active. This list was built around the results that the source calls inconclusive (neither active nor inactive); the mix of calls is not that of the screen. Calls follow the shape of the dose curve; as a rule, active = well fitted inhibition curve with a large enough effect; inconclusive = small, poorly fitted or top-dose-only effect; inactive = no such curve, though single readings can be large or run the other way. Potencies of inconclusive entries are doubtful fits and often do not repeat.
# Test: Cytotoxic Profiling in NIH 3T3 Cell Line of Diverse Libraries Using Quantitative High-Throughput Screening; also: nearly all actives have a fitted effect of over 55% in size
# Conditions: NIH 3T3 viability, CellTiter-Glo ATP luminescence, 48-72 h; activity change, negative = cytotoxicity: at 96.7 µM (top of the series) unless noted; series mostly up to 96.7 µM
# Procedure, shortened: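 First NIH 3T3 cells are plated at 400 cells/well; next compound is pinned in; then plates incubate 48 or 72 hr at 37 °C; finally CellTiter-Glo is added and luminescence read after 10 min.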
# % is scaled to controls: 0 for no effect and ±100 for the full control effect; potency is read from the fitted curve at half-maximal effect; tags tell the direction and shape of the fitted curve.
Compound,Potency,"activity change, negative = cytotoxicity",outcome
CCNC(=O)C1C(c2cccc(NC(=O)c3cccc(C)c3)c2)OC(=O)N1Cc1cccc(Cl)c1 (configuration not stated),"inconclusive: 31.6 µM [inhibitor, full curve]",–,–
CC1=C[C@@H](CNS(C)(=O)=O)[C@H](C(C)C)C[C@H]1Cc1nc2ccccc2n1C,"inconclusive: 63.1 µM [inhibitor, partial curve, poor fit]",–,–
O=C(Cc1ccccc1)NC1CCN(c2ccc3nnc(C4CC4)n3n2)CC1,"inconclusive: 89.1 µM [inhibitor, partial curve]",–,–
COc1ccccc1-c1ccc(C(=O)N2CCC(C(=O)N3CCC(c4ccccc4)CC3)CC2)cc1,"inconclusive: 39.8 µM [inhibitor, partial curve]",–,–
CN(Cc1cccc(N2CCN([S+](=O)([O-])c3c(Cl)cccc3Cl)CC2)c1F)[S+](C)(=O)[O-],"inconclusive: 10 µM [inhibitor, full curve]",–,–
O=C(c1ccnc(CC2CC(=O)N(c3ccccc3)C2)c1)N1CCCCC1 (configuration not stated),–,inactive: -12.3%,–
CCn1ccc2sc(C)c(C(=O)NCc3ccc(F)cc3Cl)c2c1=O,–,inactive: 0.486%,–
O=S1(=O)NCC2(CCCN(Cc3cccnc3)C2)Oc2ncccc21 (configuration not stated),–,–,inactive
O=C(C1CCC1)N1CCC(O)(c2csc(CN3CCc4ccccc4C3)n2)CC1,"inconclusive: 112 µM [inhibitor, partial curve, poor fit]",–,–
CN(C)S(=O)(=O)N1CCCN(Cc2ccncc2)C(c2ccccc2)CC(=O)NCC1 (configuration not stated),–,inactive: -27.5%,–
Cc1noc(C)c1-c1cc(-c2cccc(F)c2)cn2cncc12,active: 44.7 µM,–,–
O=C(NCC(F)(F)F)c1nc2sccn2c1-c1ccc(C(F)(F)F)cc1,"inconclusive: 50.1 µM [inhibitor, partial curve, poor fit]",–,–
N#Cc1ccc(CN2CCn3c(nnc3-c3ccccc3)C2)cc1,"inconclusive: 112 µM [inhibitor, partial curve, poor fit]",–,–
COc1ccc(OCC2CN(Cc3cccs3)C(=O)c3ccc(C)nc3O2)cc1 (configuration not stated),"inconclusive: 39.8 µM [inhibitor, partial curve, poor fit]",–,–
Cc1ccc(-c2cn3cc(C(=O)NCC4CCCCC4)nc3s2)cc1,–,inactive: -21.9%,–
O=C(NCCc1noc(C2CC2)n1)Nc1cccc(C(F)(F)F)c1,"inconclusive: 50.1 µM [inhibitor, partial curve, poor fit]",–,–
COc1cccc([S+](=O)([O-])N2CCC3(C2)OC(=O)Nc2ccccc23)c1 (configuration not stated),"inconclusive: 50.1 µM [inhibitor, partial curve, poor fit]",–,–
Cc1cc(C)c(CNC(=O)c2cc(-c3ccccc3O)cc3c2OCCN3C(C)C)c(=O)[nH]1,"inconclusive: 50.1 µM [inhibitor, partial curve, poor fit]",–,–
O=C(CCc1ccccc1)N1CCCN(c2cc(-c3ccc(Cl)cc3)[nH]n2)CC1,"inconclusive: 44.7 µM [inhibitor, partial curve, poor fit]",–,–
COc1ccc(-c2ccc3c(c2)C(=O)N2CCN(C(=O)c4cnccn4)C[C@H]2C(=O)N3)cc1,–,inactive: -12.4%,–
CCC(CC)CC(=O)N1CCCC(Nc2ccc3c(c2)OCCO3)C1 (configuration not stated),"inconclusive: 39.8 µM [inhibitor, partial curve]",–,–

Compound,Potency,"activity change, negative = cytotoxicity",outcome
O=C(Nc1ccc(Oc2ccccc2)cc1)O[C@@H]1CO[C@H]2[C@@H]1OC[C@@H]2NC(=S)Nc1cccc2ccccc12,"inconclusive: 35.5 µM [inhibitor, partial curve, poor fit]",–,–
CCc1nn(-c2ccc(OC)cc2)c(Oc2ccccc2F)c1CCC(=O)NC(C)C,"inconclusive: 44.7 µM [inhibitor, partial curve, poor fit]",–,–
Cc1ccc(NC(=O)CC2CCCN(c3cnn(CC4CC4)c(=O)c3)C2)cc1 (configuration not stated),"inconclusive: 44.7 µM [inhibitor, partial curve, poor fit]",–,–
CCOC(=O)C[C@@H]1C[C@@H](C(C)C)[C@H](CNC(=O)c2cccnc2)C=C1C,"inconclusive: 112 µM [inhibitor, partial curve, poor fit]",–,–
NC(=O)C1Cc2ccccc2CN1C(=O)CCc1nc2ccccc2[nH]c1=O (configuration not stated),–,inactive: -1.34%,–
CC(Cc1cnccn1)Nc1ccc(-c2nc(-c3cccc(Cl)c3)no2)cn1 (configuration not stated),"inconclusive: 25.1 µM [inhibitor, full curve]",–,–
COC(=O)NC1CCN(c2ccc3nnc(-c4ccccc4)n3n2)CC1,"inconclusive: 50.1 µM [inhibitor, partial curve, poor fit]",–,–
CCOc1ccccc1CN1CCC2(CCN(C(=O)Nc3ccccc3)CC2)Oc2ccccc21,"inconclusive: 56.2 µM [inhibitor, partial curve, poor fit]",–,–
COc1ccc(C(=O)N[C@@H]2CN(Cc3cccnc3)C[C@H]2CN(C)C)cc1F,"inconclusive: 50.1 µM [inhibitor, partial curve, poor fit]",–,–
CC(C)CNC(=O)N1CCCC(c2nc(C(C)C)no2)CCNC(=O)CC1 (configuration not stated),–,inactive: -8.55%,–
O=C(O)c1ccc(-c2ccc(C(F)(F)F)cc2)cc1,–,inactive: -17.6% [at 138 µM],–
O=C(c1ccccc1)N1Cc2ccccc2CC2(CCCCN2Cc2ccncc2)C1 (configuration not stated),"inconclusive: 70.8 µM [inhibitor, partial curve, poor fit]",–,–
CCC1(O)CCC12CCN(C(=O)Cc1cccnc1)CC2 (configuration not stated),–,inactive: -18.8%,–
Cc1cnccc1CNC(=O)CC(c1cccc(O)c1)c1cccc(Cl)c1 (configuration not stated),"inconclusive: 50.1 µM [inhibitor, partial curve, poor fit]",–,–
COc1ccc(-c2noc([C@@H]3C[C@H](NS(=O)(=O)c4ccc(OC)cc4)CN3C)n2)cc1,"inconclusive: 31.6 µM [inhibitor, partial curve, poor fit]",–,–
CC(C)c1ccc(S(=O)(=O)N2CCC3(CCCNC3)C2)cc1 (configuration not stated),"inconclusive: 44.7 µM [inhibitor, partial curve, poor fit]",–,–
CN(C(=O)c1ccc2c(c1)NC(C)(CNCc1ccccc1)CO2)c1ccccc1 (configuration not stated),"inconclusive: 63.1 µM [inhibitor, partial curve, poor fit]",–,–
CCOc1ccc(CC(=O)N2CCC(Cc3nc(-c4ccc(F)cc4)no3)CC2)cc1,"inconclusive: 31.6 µM [inhibitor, partial curve, poor fit]",–,–
NC(=O)c1cccc(-c2ncc3c(n2)OCCN(c2cccc(C(F)(F)F)c2)C3=O)c1,active: 15.8 µM,–,–
Cc1cc(S(=O)(=O)N2CCc3nn(C)c(=O)n3CC2)ccc1Cl,–,inactive: -9.26%,–
CC1(C(=O)NC2CC2)CCCc2cnc(Nc3cccnc3)nc21 (configuration not stated),"inconclusive: 112 µM [inhibitor, single point]",–,–

Compound,Potency,"activity change, negative = cytotoxicity",outcome
Cc1ccc(NC(=O)N2CCCC(Cn3c(C4CC4)nc4cccnc43)C2)cc1 (configuration not stated),"inconclusive: 70.8 µM [inhibitor, single point]",–,–
COC(=O)CN1Cc2cc(F)ccc2N(CC(O)COc2ccc(OC)cc2)CCC1=O (configuration not stated),"inconclusive: 79.4 µM [inhibitor, partial curve, poor fit]",–,–
CC(C)c1noc(-c2cn(C3CCCN(C(=O)c4ccc(C(C)(C)C)cc4)C3)nn2)n1 (configuration not stated),–,inactive: -19.1%,–
Cc1ccccc1-c1[nH]nc2ncc(-c3ccc(F)cc3)nc12,"inconclusive: 56.2 µM [inhibitor, partial curve, poor fit]",–,–
CC(C)CCN1CCOc2cc([S+](=O)([O-])Nc3nncs3)ccc2C1,active: 31.6 µM,–,–
COC(=O)CNC(=O)c1nc(C(C)(C)C)c2cnccn12,–,inactive: -10.8% [at 138 µM],–
Cc1ccc(C(=O)N2CCCCCCNC(=O)[C@@H]3C[C@@H](c4nc(-c5cnccn5)no4)C[C@@H]32)s1,–,inactive: -22.7%,–
CC(C)c1nc(-c2ccc(OC3CCN(S(=O)(=O)Cc4ccccc4)C3)cc2)no1 (configuration not stated),"inconclusive: 35.5 µM [inhibitor, partial curve]",–,–
CC1(c2ccccc2)N(Cc2cccnc2)C(=O)OC12CCN(C(=O)c1ccccc1)CC2 (configuration not stated),"inconclusive: 22.4 µM [inhibitor, partial curve, poor fit]",–,–
c1cc(CN(CCN2CCCCC2)CC2CCCN(C3CCCC3)C2)c2nonc2c1 (configuration not stated),–,inactive: -15.5%,–
Cc1cc(F)ccc1OC1CN(Cc2ccsc2)C1,"inconclusive: 79.4 µM [inhibitor, partial curve, poor fit]",–,–
CCCCCN1CCCCC12Cc1ccccc1CNC2=O (configuration not stated),–,–,inactive [at 138 µM]
CC(C)(C(=O)N1CCc2[nH]nc(-c3ccc(F)c(F)c3)c2C1)n1cccc1,"inconclusive: 56.2 µM [inhibitor, partial curve, poor fit]",–,–
CSc1ccc(-c2cccc(C(=O)NCC(=O)NCc3cccc(F)c3)c2)cc1,"inconclusive: 25.1 µM [inhibitor, partial curve, poor fit]",–,–
O=c1c2c(CO)c(-c3ccc(F)cc3)nn2ccn1Cc1cccc(C(F)(F)F)c1,"inconclusive: 10 µM [inhibitor, partial curve, poor fit]",–,–
COc1ccc(-c2cn3cc(C(=O)NC(C)C)nc3s2)cc1,"inconclusive: 22.4 µM [inhibitor, full curve]",–,–
CCCC(=O)NCc1cc2c(nc1OC)CN(C1CCCC1)C2=O,"inconclusive: 89.1 µM [inhibitor, single point]",–,–
O=C(CC1CCCC1)N1[C@@H](c2ccco2)[C@@H](CO)C[C@]12CCCCN(CCO)C2=O,"inconclusive: 56.2 µM [inhibitor, partial curve, poor fit]",–,–
CCOc1cccc(-c2nc(C(=O)NCc3ccccc3)cs2)c1,"inconclusive: 50.1 µM [inhibitor, partial curve, poor fit]",–,–
COc1cccc(-c2ccnc(-c3nnc(C)n3C3CCCCC3)c2)c1,active: 89.1 µM,–,–
